Measurements published in PubChem BioAssay AID1508642 (National Center for Advancing Translational Sciences (NCATS), 2021).
The campaign covered roughly 43,000 compounds. About 200 (0.47%) were called active. Inconclusive results (about 12%) are left out. The call rests on the fitted dose curve; in most records, active means well fitted cell-killing curve with a large enough effect; inconclusive means small, poorly fitted or top-dose-only effect, or effect the other way; inactive means flat fitted curve, though single readings scatter. This is one part of the list.

Assay: Cell viability qHTS assay in S16 Pmp22-F2sN cells; further: nearly all actives have a fitted effect of over 65% in size
Conditions: S16 Pmp22-F2sN Schwann cells (luciferase reporters placed in the Pmp22 gene) viability, CellTiter-Glo, 24 h; series mostly up to 57.5 µM; activity change, negative = cytotoxicity: at the top concentration
Summary of the method: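 Rat S16 Schwann reporter line, 24 h treatment with library compounds delivered at 23 nL per well. Cell viability by CellTiter-Glo luminescence.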
On the % scale 0 is the no-effect control and ±100 the full control effect.

| SMILES | activity change, negative = cytotoxicity |
| --- | --- |
| COc1ccccc1N1CCN(c2cc(C)nc3nc(-c4ccc(C)cc4)nn23)CC1 | inactive: 13% |
| O=C(NCc1ccc(F)cc1)c1ccc(Nc2nc3ccccc3n3nnnc23)cc1 | inactive: 1.74% |
| CCS(=O)(=O)c1nc(S(=O)(=O)c2ccc(C)cc2)c(NCCCOC)s1 | inactive: 2.53% |
| CCCC12CN3CC(CCC)(CN(C1)C3c1ccccc1)C2=O (stereo unspecified) | inactive: 1.31% |
| CCOC(=O)c1ccc(NC(=O)NCCOCCn2c(=O)oc3ccccc32)cc1 | inactive: -6.09% |
| COc1ccccc1NC(=O)C1CCN(C(=O)c2sc3nc[nH]c(=O)c3c2C)CC1 | inactive: 11.3% |
| CC(=O)c1ccc(NC(=O)c2ccc(-c3ccc(Cl)cc3)o2)cc1 | inactive: 20.8% |
| CCN(CC)CCNC(=O)c1ccc2nc(CCc3ccccc3)oc2c1 | inactive: -23.6% |
| Cc1cc2oc3c(c(=O)c2cc1C)C1(C(=O)N(C)c2ccccc21)N(CCO)C3=O (stereo unspecified) | inactive: 10.3% |
| CCn1c(CNC(=O)c2ccc(OC)cc2)nnc1SCC(=O)Nc1ccc(C)cc1 | inactive: 0.229% |
| Nc1cc(=O)nc(SCC(=O)Nc2ccc(F)cc2)n1CCc1ccccc1 | inactive: 14.7% |
| COc1ccc(N2CC(NC(=O)c3ccco3)CC2=O)cc1 (stereo unspecified) | inactive: 0.411% |
| COc1ccc(CNC(=O)CSc2nc(-c3ccc(OC)c(OC)c3)cc(C(F)(F)F)n2)cc1 | inactive: 3% |
| CC(CNC(=O)c1ccc(CSc2nc3ccncc3n2Cc2ccccc2)cc1)c1ccccc1 (stereo unspecified) | inactive: -17.9% |
| Cc1ccc(CCNC(=O)CS(=O)Cc2nc(-c3ccccc3C)oc2C)cc1 (stereo unspecified) | inactive: 3.6% |
| CCN(Cc1ccccc1)C(=O)Cn1c(=O)n(-c2ccc(Cl)cc2)c(=O)c2c(C)c(C(=O)N(C)C)sc21 | inactive: 19.9% |
| CCCCN(C)S(=O)(=O)c1ccc(C(=O)Nc2sc3c(c2C(N)=O)CC(C)(C)NC3(C)C)cc1 | inactive: 0.456% |
| CCCc1ccc(-c2ccc(C(=O)Oc3ccc(OCC)cc3)cc2)nc1 | inactive: 16.3% |
| O=C(Cn1ncc2c3ccccc3n(Cc3cccc(Cl)c3)c2c1=O)NCc1cccs1 | inactive: -2.57% |
| CCc1ccc(OCc2nc(-c3ccc(OC)cc3)no2)c(Br)c1 | inactive: 9.71% |
| O=C(Cn1cnc2c(oc3ccccc32)c1=O)Nc1ccc(F)cc1F | inactive: 7.33% |

| SMILES | activity change, negative = cytotoxicity |
| --- | --- |
| O=C(CSc1nc2c(oc3ccccc32)c(=O)n1Cc1ccco1)Nc1ccccc1Cl | inactive: 2.11% |
| O=C(Nc1ccc2nc(SCC(=O)N3CCCC3)sc2c1)c1cccc(Br)c1 | inactive: 2.31% |
| Cc1ccc(C)c(CNC(=O)CCn2cccn2)c1 | inactive: 5.8% |
| Cc1cc(C)cc(N2C(=O)CSC23C(=O)N(CC(=O)Nc2ccc(F)cc2F)c2ccccc23)c1 (stereo unspecified) | inactive: 5.57% |
| Cc1cccc(NC(=O)C2CCN(c3nc4ccccc4[nH]3)CC2)c1C | inactive: 17.8% |
| CCOCCCN1C(=O)c2[nH]nc(-c3ccccc3O)c2C1c1ccc(CC)cc1 (stereo unspecified) | inactive: 8.13% |
| CCCCc1nn2c(=O)cc(COC(=O)c3ccc(NC(=O)CCc4ccccc4)cc3)nc2s1 | inactive: -1.68% |
| CCOC(=O)c1oc2c(c1C)-c1nn(Cc3c(F)cccc3Cl)cc1CC2 | inactive: 0.0263% |
| CCc1cccc(NC(=O)Cn2c(=O)n(CC(=O)NCCc3ccccc3)c(=O)c3ccccc32)c1 | inactive: -5.01% |
| O=C1CC(c2ccccc2)c2c(n3ncnc3[nH]c2=O)N1 (stereo unspecified) | inactive: -1.43% |
| CC(C)CCn1c(=O)c2sccc2n2c(CCCC(=O)NCCc3ccccc3)nnc12 | inactive: 13.3% |
| Cc1nc2ccc(S(=O)(=O)N(CC(=O)Nc3cccc(F)c3)Cc3ccccc3)cc2s1 | inactive: 18.2% |
| CC(C)N(C)C1CCN(S(=O)(=O)c2ccc3[nH]c(=O)ccc3c2)CC1 | inactive: 4% |
| COc1cccc(CNC(=O)c2oc3c(c2C)-c2nn(Cc4cccc(Cl)c4)cc2CC3)c1OC | inactive: -3.79% |
| COc1ccccc1C(=O)N1CCC(c2noc(-c3ccc(S(=O)(=O)N4CCCC4)cc3)n2)CC1 | inactive: -23.5% |
| O=C(NCCc1ccc(Cl)cc1)c1ccc(CS(=O)Cc2ccccc2Cl)o1 (stereo unspecified) | inactive: -10.3% |
| COc1cccc(CSc2nc3n(n2)C(CC(C)C)C(C(=O)Nc2ccccc2OC)=C(C)N3)c1 (stereo unspecified) | inactive: -7.88% |
| CCCCN(CC)CCCNC(=O)Cn1ncc2c3ccccc3n(C)c2c1=O | inactive: -3.25% |
| CCOc1ccc(OCC)c(NC(=O)Cn2nc(CC)n3c(cc4sccc43)c2=O)c1 | inactive: -1.92% |
| Cc1cc(=O)n2nc(N(C)CC(=O)NCc3cccc(Br)c3)sc2n1 | inactive: 21.8% |
| Cc1ccc(NC(=O)CCN2CCN(CCO)CC2)cc1C | inactive: 0.738% |

| SMILES | activity change, negative = cytotoxicity |
| --- | --- |
| CCOc1ccc(-c2nn(CC(=O)NC3CCCC3)c3c2cnc2ccc(C)cc23)cc1 | inactive: 6.16% |
| COc1ccc(CCNC(=O)c2ccc3c(c2)N(Cc2ccc(Cl)cc2)C(=O)c2ccccc2S3)cc1OC | inactive: -3.81% |
| Cc1ccc(S(=O)(=O)CC(=O)Nc2sc3c(c2C(N)=O)CCCC3)cc1 | inactive: -2.71% |
| CC(C)CCNC(=O)Nc1ccc2c(c1)N(Cc1ccccc1)C(=O)c1ccccc1S2 | inactive: -24.4% |
| CCc1ccc(NC(=O)Cc2c(C(=O)O)c(C)cn2C)cc1 | inactive: 6.46% |
| Cc1ccccc1Nc1c(-c2ccc(Br)o2)nc2ccc(Cl)cn12 | inactive: -0.439% |
| CCN(CC)c1cc2c(cc1F)c(=O)c(S(=O)(=O)c1ccc(OC)cc1)cn2Cc1ccccc1 | inactive: -3.68% |
| CCOC(=O)Cc1ccc(NC(=O)N2CCC(CN3CCCCCC3)CC2)cc1 | inactive: 13.1% |
| CC(=O)c1ccc(NC(=O)Cn2c(-n3nc(C)cc3C)nc(C)c(C)c2=O)cc1 | inactive: 13.4% |
| CCc1ccc(Oc2c(C(F)(F)F)oc3c(CN4CCC(C)CC4)c(O)ccc3c2=O)cc1 | inactive: 6.23% |
| CCCCN(CC)C(=O)c1cc2c(=O)n3cccc(C)c3nc2n1C | inactive: 16.2% |
| Cc1c(CCNC(=O)c2ccco2)sc2nc(-c3ccc(F)cc3)nn12 | inactive: 9.2% |
| Cc1ccc(NC(=O)CN2CCSc3ccc(S(=O)(=O)N4CCCC4)cc32)cc1 | inactive: -9.27% |
| CCN(Cc1nc(-c2ccc(OC)cc2)oc1C)S(=O)(=O)c1ccc(C)cc1 | inactive: -17.2% |
| O=C(Nc1ccc(Br)cc1)c1cccc(C(=O)Nc2ccc(Br)cc2)c1 | inactive: 4.93% |
| O=S(=O)(c1ccc(Cl)cc1)c1nc(-c2ccccc2)oc1N1CCN(c2ccccc2)CC1 | inactive: 0.244% |
| CCOC(=O)c1cc(NC(=O)c2ccc(Cl)cc2)c(=O)n2c1oc1ccccc12 | inactive: 17.7% |
| O=C(CN1C=NS(=O)(=O)c2ccc(C(F)(F)F)cc21)Nc1cccc(C(F)(F)F)c1 | inactive: 17.7% |
| Cc1ccc(CNC(=O)Cn2c(=O)n(Cc3ccccc3)c(=O)c3sc4ccccc4c32)cc1 | inactive: 4.49% |
